Measurements from publication PMC3245249.
These are yes or no findings as the source states them, for the method shown. In cells and extracts the contact can be indirect. Some entries that bind do so weakly or less than the wild type. For some assays here: Where a sequence is shown, tags or fusion partners need not be part of it. Blank lines part the entries; values can stand above or below the molecule they belong to.

Sequences of proteins named here, by UniProt entry; tags and fusion partners are left off.
UniProt P39081: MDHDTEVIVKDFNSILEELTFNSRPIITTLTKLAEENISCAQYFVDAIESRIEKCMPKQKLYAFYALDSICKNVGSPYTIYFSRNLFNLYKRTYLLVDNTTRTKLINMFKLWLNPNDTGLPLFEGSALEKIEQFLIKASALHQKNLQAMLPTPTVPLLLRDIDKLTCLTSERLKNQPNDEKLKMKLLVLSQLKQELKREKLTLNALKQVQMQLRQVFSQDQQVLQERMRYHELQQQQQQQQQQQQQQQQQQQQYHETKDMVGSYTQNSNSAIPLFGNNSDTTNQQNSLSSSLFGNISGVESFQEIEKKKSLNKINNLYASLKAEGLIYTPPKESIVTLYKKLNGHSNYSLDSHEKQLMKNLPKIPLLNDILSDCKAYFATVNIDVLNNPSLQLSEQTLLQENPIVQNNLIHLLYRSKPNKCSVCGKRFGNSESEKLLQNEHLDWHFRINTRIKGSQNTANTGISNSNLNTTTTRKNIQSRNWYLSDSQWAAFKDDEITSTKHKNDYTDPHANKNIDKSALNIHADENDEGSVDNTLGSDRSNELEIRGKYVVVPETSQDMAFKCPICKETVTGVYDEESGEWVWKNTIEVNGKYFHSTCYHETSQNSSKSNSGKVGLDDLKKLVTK

Key:
ProtA-Clp1 (yeast) = target: T1, ProtA-Clp1 (yeast) (UniProt Q08685); assay: co-IP; partial purification of CF IA from yeast by the ProtA tag on Clp1, final high salt wash (1 M KCl); Western blot for Rna15, Pcf11, Clp1 and Rna14 (Fig. 4A)
T1 sequence: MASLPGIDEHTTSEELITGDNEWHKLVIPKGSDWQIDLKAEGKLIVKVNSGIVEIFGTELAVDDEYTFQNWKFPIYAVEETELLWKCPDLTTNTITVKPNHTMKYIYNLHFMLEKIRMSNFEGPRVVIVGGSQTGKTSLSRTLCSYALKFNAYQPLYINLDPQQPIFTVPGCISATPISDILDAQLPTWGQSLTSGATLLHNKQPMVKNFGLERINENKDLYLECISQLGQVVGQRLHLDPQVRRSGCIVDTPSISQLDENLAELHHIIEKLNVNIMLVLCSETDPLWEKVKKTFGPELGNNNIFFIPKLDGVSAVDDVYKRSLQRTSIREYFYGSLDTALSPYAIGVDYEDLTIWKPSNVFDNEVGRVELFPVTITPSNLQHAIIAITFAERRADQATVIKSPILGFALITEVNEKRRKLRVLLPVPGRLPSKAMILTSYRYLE

GST-Ysh1 (yeast) [1] = target: T2, GST-Ysh1 (yeast) (UniProt Q06224); assay: pull-down; GST-Ysh1 with in vitro translated [35S]-labelled proteins; all binding reactions contained labelled Pta1 and increasing concentrations of wild-type or mutant Clp1 (Fig. 2D); only the target purified
T2 sequence: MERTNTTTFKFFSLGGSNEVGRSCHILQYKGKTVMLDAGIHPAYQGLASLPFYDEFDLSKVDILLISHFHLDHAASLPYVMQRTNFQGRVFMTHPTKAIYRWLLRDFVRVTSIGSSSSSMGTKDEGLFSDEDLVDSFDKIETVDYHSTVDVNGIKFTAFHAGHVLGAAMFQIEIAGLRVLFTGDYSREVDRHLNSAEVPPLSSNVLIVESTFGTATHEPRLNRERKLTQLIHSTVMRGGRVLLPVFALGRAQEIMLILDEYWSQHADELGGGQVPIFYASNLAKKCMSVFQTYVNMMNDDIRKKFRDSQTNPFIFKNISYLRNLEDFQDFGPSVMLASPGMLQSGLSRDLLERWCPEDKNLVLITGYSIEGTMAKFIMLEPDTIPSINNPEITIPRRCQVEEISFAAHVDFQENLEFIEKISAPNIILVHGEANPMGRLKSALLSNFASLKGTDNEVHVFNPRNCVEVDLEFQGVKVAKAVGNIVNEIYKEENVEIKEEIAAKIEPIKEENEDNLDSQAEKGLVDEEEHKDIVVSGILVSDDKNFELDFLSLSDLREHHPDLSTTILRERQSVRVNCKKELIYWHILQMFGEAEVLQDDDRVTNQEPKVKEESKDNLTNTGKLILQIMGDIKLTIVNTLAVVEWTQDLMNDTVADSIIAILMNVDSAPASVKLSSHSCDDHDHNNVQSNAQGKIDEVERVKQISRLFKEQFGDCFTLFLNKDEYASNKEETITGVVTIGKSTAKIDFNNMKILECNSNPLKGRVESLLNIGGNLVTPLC

GST-Pcf11 (yeast) = GST-Pcf11 (yeast) (UniProt P39081); assay: pull-down; GST-fusion protein (100 ng) incubated with in vitro translated [35S]-methionine-labelled protein for 1 h at room temperature; bound in 860 µl to glutathione sepharose equilibrated in PBS, 0.01% NP-40, 100 µg BSA; washed three times with IPP150 (20 mM Tris-HCl pH 8.0, 150 mM KCl, 0.01% NP-40); SDS-PAGE, autoradiography (Fig. 2B, 2C); only the target purified
GST-Rna14 (yeast) = target: T3, GST-Rna14 (yeast) (UniProt P25298); assay: as above
T3 sequence: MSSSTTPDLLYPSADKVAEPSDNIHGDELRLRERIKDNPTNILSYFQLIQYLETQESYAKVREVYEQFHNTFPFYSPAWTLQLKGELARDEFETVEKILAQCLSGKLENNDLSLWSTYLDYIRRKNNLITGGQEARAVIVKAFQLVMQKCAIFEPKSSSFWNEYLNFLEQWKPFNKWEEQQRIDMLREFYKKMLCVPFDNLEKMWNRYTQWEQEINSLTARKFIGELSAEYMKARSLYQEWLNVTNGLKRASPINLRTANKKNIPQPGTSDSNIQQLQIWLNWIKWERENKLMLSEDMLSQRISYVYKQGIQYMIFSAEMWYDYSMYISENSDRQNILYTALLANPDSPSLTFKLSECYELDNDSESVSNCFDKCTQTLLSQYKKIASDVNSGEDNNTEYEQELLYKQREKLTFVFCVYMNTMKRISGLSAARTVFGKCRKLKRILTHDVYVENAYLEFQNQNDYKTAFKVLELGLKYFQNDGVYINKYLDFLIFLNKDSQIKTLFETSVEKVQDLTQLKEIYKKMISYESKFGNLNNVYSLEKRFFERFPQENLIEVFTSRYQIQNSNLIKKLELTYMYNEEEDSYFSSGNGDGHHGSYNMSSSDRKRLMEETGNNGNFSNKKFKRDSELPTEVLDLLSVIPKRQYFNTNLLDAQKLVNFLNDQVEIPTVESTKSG

GST-Yra1 = target: T4, GST-Yra1 (UniProt Q12159); assay: as above
T4 sequence: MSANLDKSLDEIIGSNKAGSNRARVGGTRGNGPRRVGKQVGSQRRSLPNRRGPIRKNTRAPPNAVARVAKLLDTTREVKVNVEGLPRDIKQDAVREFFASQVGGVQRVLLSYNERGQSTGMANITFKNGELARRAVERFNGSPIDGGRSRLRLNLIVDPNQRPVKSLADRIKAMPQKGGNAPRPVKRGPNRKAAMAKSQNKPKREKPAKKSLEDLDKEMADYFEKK

GST-Ysh1 (yeast) [2] = target: T2, GST-Ysh1 (yeast); assay: as above
GST-Rna15 (yeast) = target: T5, GST-Rna15 (yeast) (UniProt P25299); assay: as above
T5 sequence: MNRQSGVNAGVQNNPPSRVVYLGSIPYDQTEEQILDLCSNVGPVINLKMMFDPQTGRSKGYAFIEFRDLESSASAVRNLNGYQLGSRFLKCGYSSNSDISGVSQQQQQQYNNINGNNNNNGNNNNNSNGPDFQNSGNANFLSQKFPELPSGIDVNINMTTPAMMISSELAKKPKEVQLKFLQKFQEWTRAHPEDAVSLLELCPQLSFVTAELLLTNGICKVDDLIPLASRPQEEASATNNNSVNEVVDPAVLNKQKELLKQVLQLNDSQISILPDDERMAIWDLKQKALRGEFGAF

binding (GST-Ysh1 (yeast) [1]): binds | binding (GST-Rna14 (yeast)): binds weakly | binding (GST-Ysh1 (yeast) [2]): binds
B3: Clp1 D161A, full length, in vitro translated (protein, UniProt Q08685 1-445)
chain: MASLPGIDEHTTSEELITGDNEWHKLVIPKGSDWQIDLKAEGKLIVKVNSGIVEIFGTELAVDDEYTFQNWKFPIYAVEETELLWKCPDLTTNTITVKPNHTMKYIYNLHFMLEKIRMSNFEGPRVVIVGGSQTGKTSLSRTLCSYALKFNAYQPLYINLAPQQPIFTVPGCISATPISDILDAQLPTWGQSLTSGATLLHNKQPMVKNFGLERINENKDLYLECISQLGQVVGQRLHLDPQVRRSGCIVDTPSISQLDENLAELHHIIEKLNVNIMLVLCSETDPLWEKVKKTFGPELGNNNIFFIPKLDGVSAVDDVYKRSLQRTSIREYFYGSLDTALSPYAIGVDYEDLTIWKPSNVFDNEVGRVELFPVTITPSNLQHAIIAITFAERRADQATVIKSPILGFALITEVNEKRRKLRVLLPVPGRLPSKAMILTSYRYLE
modifications: [35S]-methionine-labelled
binding (GST-Rna15 (yeast)): no binding (tested: 100 ng GST-fusion protein in 860 µl) | binding (GST-Yra1): no binding (tested: 100 ng GST-fusion protein in 860 µl)

binding (GST-Ysh1 (yeast) [1]): binds | binding (GST-Rna14 (yeast)): binds weakly | binding (GST-Ysh1 (yeast) [2]): binds
B4: Clp1 K136A T137A, full length, in vitro translated (protein, UniProt Q08685 1-445)
chain: MASLPGIDEHTTSEELITGDNEWHKLVIPKGSDWQIDLKAEGKLIVKVNSGIVEIFGTELAVDDEYTFQNWKFPIYAVEETELLWKCPDLTTNTITVKPNHTMKYIYNLHFMLEKIRMSNFEGPRVVIVGGSQTGAASLSRTLCSYALKFNAYQPLYINLDPQQPIFTVPGCISATPISDILDAQLPTWGQSLTSGATLLHNKQPMVKNFGLERINENKDLYLECISQLGQVVGQRLHLDPQVRRSGCIVDTPSISQLDENLAELHHIIEKLNVNIMLVLCSETDPLWEKVKKTFGPELGNNNIFFIPKLDGVSAVDDVYKRSLQRTSIREYFYGSLDTALSPYAIGVDYEDLTIWKPSNVFDNEVGRVELFPVTITPSNLQHAIIAITFAERRADQATVIKSPILGFALITEVNEKRRKLRVLLPVPGRLPSKAMILTSYRYLE
modifications: [35S]-methionine-labelled
binding (GST-Yra1): no binding (tested: 100 ng GST-fusion protein in 860 µl)

Second part, the molecule before the results:

Molecule: Pcf11, endogenous in yeast (from UniProt P39081 1-626)
binding (ProtA-Clp1 (yeast)): binds

B1: Clp1, full-length wild-type, in vitro translated (protein, UniProt Q08685 1-445)
chain: MASLPGIDEHTTSEELITGDNEWHKLVIPKGSDWQIDLKAEGKLIVKVNSGIVEIFGTELAVDDEYTFQNWKFPIYAVEETELLWKCPDLTTNTITVKPNHTMKYIYNLHFMLEKIRMSNFEGPRVVIVGGSQTGKTSLSRTLCSYALKFNAYQPLYINLDPQQPIFTVPGCISATPISDILDAQLPTWGQSLTSGATLLHNKQPMVKNFGLERINENKDLYLECISQLGQVVGQRLHLDPQVRRSGCIVDTPSISQLDENLAELHHIIEKLNVNIMLVLCSETDPLWEKVKKTFGPELGNNNIFFIPKLDGVSAVDDVYKRSLQRTSIREYFYGSLDTALSPYAIGVDYEDLTIWKPSNVFDNEVGRVELFPVTITPSNLQHAIIAITFAERRADQATVIKSPILGFALITEVNEKRRKLRVLLPVPGRLPSKAMILTSYRYLE
modifications: [35S]-methionine-labelled
binding (GST-Ysh1 (yeast) [1]): binds weakly | binding (GST-Pcf11 (yeast)): binds | binding (GST-Rna14 (yeast)): binds weakly | binding (GST-Yra1): no binding (tested: 100 ng GST-fusion protein in 860 µl) | binding (GST-Ysh1 (yeast) [2]): binds

B2: Clp1 T137A, full length, in vitro translated (protein, UniProt Q08685 1-445)
chain: MASLPGIDEHTTSEELITGDNEWHKLVIPKGSDWQIDLKAEGKLIVKVNSGIVEIFGTELAVDDEYTFQNWKFPIYAVEETELLWKCPDLTTNTITVKPNHTMKYIYNLHFMLEKIRMSNFEGPRVVIVGGSQTGKASLSRTLCSYALKFNAYQPLYINLDPQQPIFTVPGCISATPISDILDAQLPTWGQSLTSGATLLHNKQPMVKNFGLERINENKDLYLECISQLGQVVGQRLHLDPQVRRSGCIVDTPSISQLDENLAELHHIIEKLNVNIMLVLCSETDPLWEKVKKTFGPELGNNNIFFIPKLDGVSAVDDVYKRSLQRTSIREYFYGSLDTALSPYAIGVDYEDLTIWKPSNVFDNEVGRVELFPVTITPSNLQHAIIAITFAERRADQATVIKSPILGFALITEVNEKRRKLRVLLPVPGRLPSKAMILTSYRYLE
modifications: [35S]-methionine-labelled
binding (GST-Pcf11 (yeast)): no binding (tested: 100 ng GST-fusion protein in 860 µl) | binding (GST-Rna14 (yeast)): binds weakly | binding (GST-Rna15 (yeast)): no binding (tested: 100 ng GST-fusion protein in 860 µl) | binding (GST-Yra1): no binding (tested: 100 ng GST-fusion protein in 860 µl) | binding (GST-Ysh1 (yeast) [2]): binds
